# Measured values reported in the supplement of paper PMC9588766.
# Counter-ions that a name gives are not always drawn. The full ranking holds about 1,900 compounds; the median of “cell viability of compound + 1 nM pemigatinib relative to pemigatinib-only (DMSO) wells” is about 0.95, and the lowest 2% start at about 0.22. The list shows a part of the results.
# Tested on: PDC-DUC18828
# Assay: cell viability of compound + 1 nM pemigatinib relative to pemigatinib-only (DMSO) wells (fraction); PDC-DUC18828 is a patient-derived cholangiocarcinoma cell line; higher = less growth inhibition
# Settings: first compound 1 µM; pemigatinib concentration 1 nM; 72 h
# Experimental: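 Selleck Bioactive library screen in the patient-derived FGFR2 fusion-positive ICC cell line PDC-DUC18828 (500 cells/well). Each compound was tested at 1 uM with 1 nM pemigatinib, in triplicate, for 72 h. Viability was read by CellTiter-Glo and normalised to plate DMSO controls. Value is the paper's averaged normalised viability.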
row,SMILES,cell viability
1,O=C(COc1cccc2c(=O)[nH]ccc12)c1ccccc1 + CCN1C(=O)N(c2c(F)c(OC)cc(OC)c2F)Cc2cnc3[nH]c(CN4CCOCC4)cc3c21 [pemigatinib],1.02
2,CCNC(=O)[C@H]1O[C@@H](n2cnc3c(N)nc(NCCc4ccc(CCC(=O)O)cc4)nc32)[C@H](O)[C@@H]1O + CCN1C(=O)N(c2c(F)c(OC)cc(OC)c2F)Cc2cnc3[nH]c(CN4CCOCC4)cc3c21 [pemigatinib],0.99
3,COCCOc1nc(-c2ccc(Cl)c(Cl)c2)n(-c2ccc(NC(=O)CCl)cc2)n1 [MI-2 (MALT1 inhibitor)] + CCN1C(=O)N(c2c(F)c(OC)cc(OC)c2F)Cc2cnc3[nH]c(CN4CCOCC4)cc3c21 [pemigatinib],0.802
4,CC(C(=O)O)c1cccc(Oc2ccccc2)c1 (stereo not drawn) [Fenoprofen Calcium] + CCN1C(=O)N(c2c(F)c(OC)cc(OC)c2F)Cc2cnc3[nH]c(CN4CCOCC4)cc3c21 [pemigatinib],0.984
5,CC(C(=O)O)c1cccc(Oc2ccccc2)c1 (stereo not drawn) [Fenoprofen calcium hydrate] + CCN1C(=O)N(c2c(F)c(OC)cc(OC)c2F)Cc2cnc3[nH]c(CN4CCOCC4)cc3c21 [pemigatinib],0.882
6,CCCc1ncc(C[n+]2ccccc2C)c(N)n1 [Amprolium HCl] + CCN1C(=O)N(c2c(F)c(OC)cc(OC)c2F)Cc2cnc3[nH]c(CN4CCOCC4)cc3c21 [pemigatinib],0.976
7,O=C1NC(=O)/C(=C/c2ccc3nccc(-c4ccncc4)c3c2)S1 + CCN1C(=O)N(c2c(F)c(OC)cc(OC)c2F)Cc2cnc3[nH]c(CN4CCOCC4)cc3c21 [pemigatinib],0.954
8,O=C1NC(=O)C(c2ccccc2[N+](=O)[O-])=C1Nc1ccc(O)c(Cl)c1 + CCN1C(=O)N(c2c(F)c(OC)cc(OC)c2F)Cc2cnc3[nH]c(CN4CCOCC4)cc3c21 [pemigatinib],0.869
9,OC[C@H]1OC(O)[C@H](O)[C@@H](O)[C@@H]1O (stereo partly drawn) [Dextrose] + CCN1C(=O)N(c2c(F)c(OC)cc(OC)c2F)Cc2cnc3[nH]c(CN4CCOCC4)cc3c21 [pemigatinib],1.01
10,CC(=O)OCC(=O)NCCCOc1cccc(CN2CCCCC2)c1 [Roxatidine Acetate HCl] + CCN1C(=O)N(c2c(F)c(OC)cc(OC)c2F)Cc2cnc3[nH]c(CN4CCOCC4)cc3c21 [pemigatinib],0.96
11,CCn1cc(C(=O)O)c(=O)c2cc(F)c(N3CCNCC3)nc21 [Enoxacin] + CCN1C(=O)N(c2c(F)c(OC)cc(OC)c2F)Cc2cnc3[nH]c(CN4CCOCC4)cc3c21 [pemigatinib],0.969
12,C[C@H](NCc1ccc(OCc2cccc(F)c2)cc1)C(N)=O [Safinamide Mesylate] + CCN1C(=O)N(c2c(F)c(OC)cc(OC)c2F)Cc2cnc3[nH]c(CN4CCOCC4)cc3c21 [pemigatinib],0.993
13,OC[C@@H](O)[C@@H](O)[C@H](O)[C@H](O)CO [D-Mannitol] + CCN1C(=O)N(c2c(F)c(OC)cc(OC)c2F)Cc2cnc3[nH]c(CN4CCOCC4)cc3c21 [pemigatinib],0.933
14,O=C(NC[C@H](O)CO)c1ccncc1Nc1ccc(I)cc1F + CCN1C(=O)N(c2c(F)c(OC)cc(OC)c2F)Cc2cnc3[nH]c(CN4CCOCC4)cc3c21 [pemigatinib],0.815
15,Cc1ccc(-n2nc(C(C)(C)C)cc2NC(=O)NCc2cc(F)ccc2Oc2ccc3c(cnn3CCO)c2)cc1 [Pexmetinib (ARRY-614)] + CCN1C(=O)N(c2c(F)c(OC)cc(OC)c2F)Cc2cnc3[nH]c(CN4CCOCC4)cc3c21 [pemigatinib],0.911
16,O=C(Nc1ccc(S(=O)(=O)Nc2ccccc2Cl)c(Cl)c1)c1ccccn1 + CCN1C(=O)N(c2c(F)c(OC)cc(OC)c2F)Cc2cnc3[nH]c(CN4CCOCC4)cc3c21 [pemigatinib],1.01
17,Oc1ccc(-c2nc(-c3ccc(F)cc3)c(-c3ccncc3)[nH]2)cc1 + CCN1C(=O)N(c2c(F)c(OC)cc(OC)c2F)Cc2cnc3[nH]c(CN4CCOCC4)cc3c21 [pemigatinib],1.02
18,Cc1ccc(C(=O)Nc2ccc(CN3CCN(C)CC3)c(C(F)(F)F)c2)cc1C#Cc1cnc2[nH]ncc2c1 + CCN1C(=O)N(c2c(F)c(OC)cc(OC)c2F)Cc2cnc3[nH]c(CN4CCOCC4)cc3c21 [pemigatinib],0.299
19,Cc1ccccc1C(C(=O)NC1CCCCC1)N(C(=O)Cn1ccnc1C)c1cccc(F)c1 (stereo not drawn) + CCN1C(=O)N(c2c(F)c(OC)cc(OC)c2F)Cc2cnc3[nH]c(CN4CCOCC4)cc3c21 [pemigatinib],1.06

row,SMILES,cell viability
1,O=C(O)c1cc(=O)[nH]c(=O)[nH]1 [Orotic acid (6-Carboxyuracil)] + CCN1C(=O)N(c2c(F)c(OC)cc(OC)c2F)Cc2cnc3[nH]c(CN4CCOCC4)cc3c21 [pemigatinib],0.967
2,CC1(C)S[C@@H]2[C@H](NC(=O)[C@H](N)c3ccccc3)C(=O)N2[C@H]1C(=O)O [Ampicillin Trihydrate] + CCN1C(=O)N(c2c(F)c(OC)cc(OC)c2F)Cc2cnc3[nH]c(CN4CCOCC4)cc3c21 [pemigatinib],1.01
3,CC1(C)S[C@@H]2[C@H](NC(=O)[C@H](N)c3ccccc3)C(=O)N2[C@H]1C(=O)O [Ampicillin sodium] + CCN1C(=O)N(c2c(F)c(OC)cc(OC)c2F)Cc2cnc3[nH]c(CN4CCOCC4)cc3c21 [pemigatinib],0.924
4,C[C@]12CCC(=O)C=C1[C@@H]1C[C@@H]1[C@H]1[C@@H]3[C@@H]4C[C@@H]4[C@@]4(CCC(=O)O4)[C@@]3(C)CC[C@@H]12 [Drospirenone] + CCN1C(=O)N(c2c(F)c(OC)cc(OC)c2F)Cc2cnc3[nH]c(CN4CCOCC4)cc3c21 [pemigatinib],0.899
5,COc1ccc2cc([C@H](C)C(=O)O)ccc2c1 [Naproxen] + CCN1C(=O)N(c2c(F)c(OC)cc(OC)c2F)Cc2cnc3[nH]c(CN4CCOCC4)cc3c21 [pemigatinib],1.03
6,N#Cc1cc(CN2CCC(Nc3ncnc4sc(Cl)cc34)CC2)ccc1F + CCN1C(=O)N(c2c(F)c(OC)cc(OC)c2F)Cc2cnc3[nH]c(CN4CCOCC4)cc3c21 [pemigatinib],0.943
7,Cc1ncc([N+](=O)[O-])n1CC(C)O (stereo not drawn) [Secnidazole] + CCN1C(=O)N(c2c(F)c(OC)cc(OC)c2F)Cc2cnc3[nH]c(CN4CCOCC4)cc3c21 [pemigatinib],0.975
8,OCCn1cc(-c2cnc3nnn(Cc4ccc5ncccc5c4)c3n2)cn1 + CCN1C(=O)N(c2c(F)c(OC)cc(OC)c2F)Cc2cnc3[nH]c(CN4CCOCC4)cc3c21 [pemigatinib],1.02
9,CN1CCC(Nc2nc(Nc3ccc(Oc4ccccc4)cc3)c3c(=O)[nH]cc(Br)c3n2)CC1 + CCN1C(=O)N(c2c(F)c(OC)cc(OC)c2F)Cc2cnc3[nH]c(CN4CCOCC4)cc3c21 [pemigatinib],0.783
10,NC(=O)c1cccc(-c2cccc(OC(=O)NC3CCCCC3)c2)c1 + CCN1C(=O)N(c2c(F)c(OC)cc(OC)c2F)Cc2cnc3[nH]c(CN4CCOCC4)cc3c21 [pemigatinib],0.993
11,CC(=O)O[C@H]1C(=O)[C@@]2(C)[C@H]([C@H](OC(=O)c3ccccc3)[C@]3(O)C[C@H](OC(=O)[C@H](O)[C@@H](NC(=O)c4ccccc4)c4ccccc4)C(C)=C1C3(C)C)[C@]1(OC(C)=O)CO[C@@H]1C[C@@H]2O [Paclitaxel] + CCN1C(=O)N(c2c(F)c(OC)cc(OC)c2F)Cc2cnc3[nH]c(CN4CCOCC4)cc3c21 [pemigatinib],0.221
12,CCCN(CCC)CCc1cccc2c1CC(=O)N2 [Ropinirole HCl] + CCN1C(=O)N(c2c(F)c(OC)cc(OC)c2F)Cc2cnc3[nH]c(CN4CCOCC4)cc3c21 [pemigatinib],0.853
13,CCCCCCCCCCCCCCCCn1cc[n+](Cc2ccccc2)c1C + CCN1C(=O)N(c2c(F)c(OC)cc(OC)c2F)Cc2cnc3[nH]c(CN4CCOCC4)cc3c21 [pemigatinib],0.439
14,CSc1nc2cc(Cl)c(Oc3cccc(Cl)c3Cl)cc2[nH]1 [Triclabendazole] + CCN1C(=O)N(c2c(F)c(OC)cc(OC)c2F)Cc2cnc3[nH]c(CN4CCOCC4)cc3c21 [pemigatinib],0.945
15,Nc1ccc(-c2ccc3ncc4ccc(=O)n(-c5cccc(C(F)(F)F)c5)c4c3c2)cn1 [Torin 2] + CCN1C(=O)N(c2c(F)c(OC)cc(OC)c2F)Cc2cnc3[nH]c(CN4CCOCC4)cc3c21 [pemigatinib],0.203
16,Cc1cnc(-c2ccccc2C(C)C)nc1NCc1ccc(-n2ccnn2)cc1 + CCN1C(=O)N(c2c(F)c(OC)cc(OC)c2F)Cc2cnc3[nH]c(CN4CCOCC4)cc3c21 [pemigatinib],0.914
17,CC(C)C[C@H](NC(=O)[C@H](Cc1ccccc1)C[C@@H](O)[C@H](Cc1ccccc1)NC(=O)OC(C)(C)C)C(=O)N[C@@H](Cc1ccccc1)C(N)=O + CCN1C(=O)N(c2c(F)c(OC)cc(OC)c2F)Cc2cnc3[nH]c(CN4CCOCC4)cc3c21 [pemigatinib],0.915
18,Nc1nc(N)c(N=O)c(OCC2CCCCC2)n1 + CCN1C(=O)N(c2c(F)c(OC)cc(OC)c2F)Cc2cnc3[nH]c(CN4CCOCC4)cc3c21 [pemigatinib],0.969
19,COc1cc2nc(N3CCCC3)nc(NCCCCCN3CCCC3)c2cc1OC + CCN1C(=O)N(c2c(F)c(OC)cc(OC)c2F)Cc2cnc3[nH]c(CN4CCOCC4)cc3c21 [pemigatinib],0.995
